The record followed here is publication PMC7819943, “Rice protein-binding microarrays: a tool to detect cis-acting elements near promoter regions in rice”.

The list shows a part of the results.

The target in this assay is T1, OsWOX13 (Oryza sativa, UniProt Q5QMM3 1-267).
T1 sequence: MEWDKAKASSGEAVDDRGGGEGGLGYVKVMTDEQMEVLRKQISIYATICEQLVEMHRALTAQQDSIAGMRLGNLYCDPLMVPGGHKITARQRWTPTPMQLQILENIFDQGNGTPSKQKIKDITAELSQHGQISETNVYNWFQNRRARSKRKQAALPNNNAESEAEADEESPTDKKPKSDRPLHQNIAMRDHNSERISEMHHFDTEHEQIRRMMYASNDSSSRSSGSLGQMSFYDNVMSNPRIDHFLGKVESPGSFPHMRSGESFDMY
In words: protein-binding microarray (RPBM); PBS, 2% BSA, 51.3 ng/ul salmon testes DNA, 50 uM zinc acetate, 200 nM TF, 25 C, 1 h; high values mean tight binding. Conditions: protein: recombinant; tags: N-terminal polyhistidine and DsRed monomer fusion (pET32a); label: CyDye5-dUTP incorporated in the synthesized complementary strand; 3' TTTTT single-stranded linker to array surface; dsDNA, one strand shown. A digest of the protocol:
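Transcription factors were made in E. coli BL21-CodonPlus as N-terminal fusions to a polyhistidine tag and DsRed, then purified on Ni–NTA. After primer extension with Cy5-dUTP and blocking with 2% BSA, a custom Agilent array was exposed for 1 h at 25 °C to 200 nM protein in PBS, 2% BSA, salmon testes DNA and 50 µM zinc acetate. Washed arrays were scanned on an Axon 4000B, and the binding signal is per-feature fluorescence intensity in arbitrary units.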
Consider “CGAAATTATACGGTGATGGCATTAGTCAGAGCACGATACCCGGAGTCACCTAGTGCAG”, for which the binding signal was 9100 fluorescence intensity (a.u.).

Turning to “ATCTGATGGACGAGAGATGAAGCAAACCTCAGCCGTCCATCGGAGTCACCTAGTGCAG”, the binding signal is 11700 fluorescence intensity (a.u.).

For “GGTGGGATAATTAAGTTCGGTATGAAACTTTTCTCCTCCTCGGAGTCACCTAGTGCAG”, the binding signal was 6270 fluorescence intensity (a.u.).

On to “AATAACTCTAATTTATTAAATATCAATGCAATTATTTCTTCGGAGTCACCTAGTGCAG”, for which the binding signal was 11800 fluorescence intensity (a.u.).

For the sequence “ACTGTAACTGAACATGATGTGCACCGGGTCGTCGGCCATACGGAGTCACCTAGTGCAG”, the binding signal was 10800 fluorescence intensity (a.u.).

As for “CTACATTATTATCTCTATATAAATTAGATATAAAGTTGCACGGAGTCACCTAGTGCAG”, the binding signal is 4920 fluorescence intensity (a.u.).

Consider “CAGAACTACTCATCACCGATGATTAATTAAGTATTAGCTGCGGAGTCACCTAGTGCAG”, for which the binding signal was 13500 fluorescence intensity (a.u.).

“AATCCATTAATTAATGTATTGGATCCTCGTAGACAATACGCGGAGTCACCTAGTGCAG”: the binding signal was 24600 fluorescence intensity (a.u.).

“CAGGTAATGGATTGATTGCAGGGTTGGGATTTGACCAGGTCGGAGTCACCTAGTGCAG”: the binding signal was 51800 fluorescence intensity (a.u.).

As for “GTCCATAATCACCTATCAAGAAACAGAGGTTTAAGACACACGGAGTCACCTAGTGCAG”, the binding signal was 3940 fluorescence intensity (a.u.).

Take “ATGATTTAGAGCTATTAGTGGGCTGCTATATTGACCTTGCCGGAGTCACCTAGTGCAG”: the binding signal was 5700 fluorescence intensity (a.u.).

For “TAAAATAGTTAATACTCAATTAATCATACATTAATACGCTCGGAGTCACCTAGTGCAG”, the binding signal is 11200 fluorescence intensity (a.u.).

For the sequence “ATAAACCATTAAATATGATTAATTAAGTATTAATTATTTTCGGAGTCACCTAGTGCAG”, the binding signal was 12200 fluorescence intensity (a.u.).

Consider “TTGATTAGATGCGCTGTGTGGCTTCTTGTTCAGTGACAGGCGGAGTCACCTAGTGCAG”, for which the binding signal is 32400 fluorescence intensity (a.u.).

In the case of “GCATTAAATTAGAAAGGTGAATAGTGATCCGGTTTTGGGACGGAGTCACCTAGTGCAG”, the binding signal is 15300 fluorescence intensity (a.u.).

Turning to “GTTTGATTATGTGGTCTGCATGTGCCTAGTTTGACATCAGCGGAGTCACCTAGTGCAG”, the binding signal was 32700 fluorescence intensity (a.u.).

With “CAAAACTAATTTTCAGGAAGAAAACCAATCTAGAATTCCGCGGAGTCACCTAGTGCAG”, the binding signal was 3220 fluorescence intensity (a.u.).

Take “GCGGGGATTTGGAAATTTGGATGGATTTGGGAATTTGGGTCGGAGTCACCTAGTGCAG”: the binding signal was 4420 fluorescence intensity (a.u.).

Consider “GTGATTTTGACAAATGTGTACTGCAAAGTACAAACCATTACGGAGTCACCTAGTGCAG”, for which the binding signal is 7340 fluorescence intensity (a.u.).

For the sequence “TAAAATGATTGAACCCTTGCATTCCGAGAGATCCTCGCTTCGGAGTCACCTAGTGCAG”, the binding signal is 45000 fluorescence intensity (a.u.).

On to “TTTAGTTAGATTGGATAGTCATGTCGTAGTTCCATACCAACGGAGTCACCTAGTGCAG”, for which the binding signal is 21800 fluorescence intensity (a.u.).

Turning to “AAAACGTGACGACAATAACATTTATTTGTAACAACATATTCGGAGTCACCTAGTGCAG”, the binding signal is 4060 fluorescence intensity (a.u.).

As to “TAGATTGTTATAGATTTATTATACTGCTACTCCTATCACACGGAGTCACCTAGTGCAG”, the binding signal is 14900 fluorescence intensity (a.u.).

Consider “AGACATGATTAATTTTAGTTTCCAAAGTTGAAAACAAACACGGAGTCACCTAGTGCAG”, for which the binding signal was 18900 fluorescence intensity (a.u.).

Consider “AACTTATATAAGTTAAATTTAAACTTATATGTTTGTGGGGCGGAGTCACCTAGTGCAG”, for which the binding signal was 4170 fluorescence intensity (a.u.).

For the sequence “TTTGGATTGAAGCCAAAATATGTCCATAAGAGACAAGTTCCGGAGTCACCTAGTGCAG”, the binding signal was 7350 fluorescence intensity (a.u.).

“TTCCGAATTTCAGTTATTTCCTAATTGTATTTCTATATGGCGGAGTCACCTAGTGCAG”: the binding signal is 4550 fluorescence intensity (a.u.).

For the sequence “GATGATTAGTGGAGACCTGAGAGGGAGAGACCATGGAGTCCGGAGTCACCTAGTGCAG”, the binding signal was 26900 fluorescence intensity (a.u.).

For the sequence “ATGCAAAATCACACCAATTAACTTTGAATATAATCATGTCCGGAGTCACCTAGTGCAG”, the binding signal was 17900 fluorescence intensity (a.u.).

Regarding “TATATTGACTATAAATAATTTAAAGATAGTAGTTGACTATCGGAGTCACCTAGTGCAG”, the binding signal was 6120 fluorescence intensity (a.u.).

As to “ATAATTAGGCCTTGACTGCAATAAAAGCTAAAACTTTGTTCGGAGTCACCTAGTGCAG”, the binding signal is 29700 fluorescence intensity (a.u.).

Consider “ATCATAATGTGTATGCATGATTAGAGGGCGCAAATTTGTACGGAGTCACCTAGTGCAG”, for which the binding signal is 14600 fluorescence intensity (a.u.).

Regarding “TTTAAGATCATGATTAACATGACATTGAAGCATTACCACGCGGAGTCACCTAGTGCAG”, the binding signal is 5610 fluorescence intensity (a.u.).

“GAGCTAGCATTAATTTGTTGCAATCCTATGATGGATGGATCGGAGTCACCTAGTGCAG”: the binding signal was 4630 fluorescence intensity (a.u.).

With “TAGGTAAAGTCAATCATCAATGACTTCATCACTTCACAGCCGGAGTCACCTAGTGCAG”, the binding signal was 12400 fluorescence intensity (a.u.).

Turning to “GTAAATTGAACAACGGTTGTAAAGCCAAAATAATACGCATCGGAGTCACCTAGTGCAG”, the binding signal was 24400 fluorescence intensity (a.u.).

“ATTGATTCTTAACAAATTAGTATTTGCAATTTGTGAGGGCCGGAGTCACCTAGTGCAG”: the binding signal is 23600 fluorescence intensity (a.u.).

As to “ACAGATTGCGTGTAAATTGCGAGACGAATCTTTTAAGTCTCGGAGTCACCTAGTGCAG”, the binding signal is 29700 fluorescence intensity (a.u.).

In the case of “CAGAATTAAGTTTAACAATTAGATTGTGTAATCATAATTGCGGAGTCACCTAGTGCAG”, the binding signal was 12200 fluorescence intensity (a.u.).

Regarding “GACTAGATTAATAGTAAACCACCTTAATAGTATGTCTACACGGAGTCACCTAGTGCAG”, the binding signal is 7550 fluorescence intensity (a.u.).

For the sequence “CCATATCTTTAATTTATACTTAATTTATAAGACATATCTTCGGAGTCACCTAGTGCAG”, the binding signal is 16100 fluorescence intensity (a.u.).

Turning to “GCAACTTGGATGATTTGTTCTTGGATACTATGGCAGATGGCGGAGTCACCTAGTGCAG”, the binding signal is 3690 fluorescence intensity (a.u.).
